Results published in article PMC4336329 (PLoS ONE, 2015).
About 14,000 (4.5%) of roughly 310,000 compounds showed an effect of 50% or more. The effect is printed as a negative number. The list shows a part of the results.

biological target: human ether-à-go-go-related gene (hERG) potassium channel (human, UniProt Q12809); assay: primary screen, population patch clamp on CHO cells stably expressing hERG
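Further: peak tail current of the secondary pulse compared with the same well before compound.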

Chain of human ether-à-go-go-related gene (hERG) potassium channel (Q12809 whole entry, looked up): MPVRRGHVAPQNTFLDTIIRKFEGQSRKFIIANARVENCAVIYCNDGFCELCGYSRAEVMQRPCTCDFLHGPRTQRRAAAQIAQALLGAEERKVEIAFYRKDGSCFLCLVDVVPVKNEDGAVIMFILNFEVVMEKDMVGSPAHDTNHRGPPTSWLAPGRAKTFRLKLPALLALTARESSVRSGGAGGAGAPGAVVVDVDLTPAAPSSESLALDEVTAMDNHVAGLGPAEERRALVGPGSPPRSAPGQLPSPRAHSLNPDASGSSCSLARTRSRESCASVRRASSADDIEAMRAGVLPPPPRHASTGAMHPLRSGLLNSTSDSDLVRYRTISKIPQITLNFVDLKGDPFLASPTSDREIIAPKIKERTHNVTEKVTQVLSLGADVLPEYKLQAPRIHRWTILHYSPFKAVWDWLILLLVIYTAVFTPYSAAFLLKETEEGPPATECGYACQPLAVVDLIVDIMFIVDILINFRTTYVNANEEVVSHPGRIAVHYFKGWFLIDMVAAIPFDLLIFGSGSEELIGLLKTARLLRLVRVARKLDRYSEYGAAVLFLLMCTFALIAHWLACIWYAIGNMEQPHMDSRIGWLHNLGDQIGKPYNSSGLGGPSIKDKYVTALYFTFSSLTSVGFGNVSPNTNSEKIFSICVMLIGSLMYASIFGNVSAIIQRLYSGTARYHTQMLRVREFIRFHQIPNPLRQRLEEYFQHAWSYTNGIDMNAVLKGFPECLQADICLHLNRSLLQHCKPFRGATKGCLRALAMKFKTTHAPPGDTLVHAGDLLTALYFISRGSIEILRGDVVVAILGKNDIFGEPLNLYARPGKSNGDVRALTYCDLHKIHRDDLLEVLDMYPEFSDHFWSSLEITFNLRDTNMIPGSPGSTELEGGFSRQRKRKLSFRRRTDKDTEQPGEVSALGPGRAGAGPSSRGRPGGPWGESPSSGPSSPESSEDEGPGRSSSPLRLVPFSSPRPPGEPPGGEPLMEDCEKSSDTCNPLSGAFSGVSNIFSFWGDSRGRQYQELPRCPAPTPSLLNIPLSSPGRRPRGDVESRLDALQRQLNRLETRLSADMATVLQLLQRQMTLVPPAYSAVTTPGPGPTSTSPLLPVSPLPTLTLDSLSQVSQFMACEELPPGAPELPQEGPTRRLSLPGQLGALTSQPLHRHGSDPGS

Row | SMILES | hERG current change (%, negative = inhibition) at 10uM [%]
1 | Br.OCCn1c(-c2ccc3c(c2)OCO3)csc1=Nc1ccccc1 | -20.2
2 | CSc1ncc(/C=C2/C(=O)NC(=O)N(C3CCCCC3)C2=O)cn1 | -4.51
3 | O=C(NCc1ccccn1)C1Nc2ccc(OC(F)(F)F)cc2C2C=CCC12 (stereo not drawn) | -1.6
4 | C=CCn1c(SCc2ccc(OC)cc2)nnc1-c1cccnc1 | -26.9
5 | O=C(CN1CCN(S(=O)(=O)c2ccc(Cl)cc2)CC1)c1ccc(O)c(O)c1 | -59.5
6 | C/C=C/c1ccc(OCC(=O)Nc2cc(OC)c(OC)c(OC)c2)c(OC)c1 | -3.16
7 | COc1ccc(C(=O)N(C)Cc2ccc(C)o2)cc1OC1CCN(C(C)=O)CC1 | 3.84
8 | CC(C)Oc1ccc(NC(=O)CCC(=O)O)cc1 | -0.196
9 | CCn1cc(C(=O)NCCC(=O)NCCCO)c(=O)c2cc3c(cc21)OCO3 | 20.1
10 | CN(C)CCC(=O)c1ccc(Cl)cc1.Cl | 2.48
11 | CS(=O)(=O)c1ncc(Cl)c(C(=O)Nc2ccc(OC(F)F)cc2)n1 | 9.65
12 | COc1ccc(C(=O)NNC(=O)c2cc(C)nc3ccccc23)cc1 | -0.237
13 | CCC(C)NC(=O)C1CN(S(=O)(=O)c2ccccc2)CCN1S(=O)(=O)c1ccccc1 (stereo not drawn) | -18.3
14 | C=CCOC(=O)C1=C(C)NC(C)=C(C(=O)OCC=C)C1c1ccc(C)o1 | -27.4
15 | CCCCC(=O)Nc1cccn2ncnc12 | 10.8
16 | Cc1ccc(F)c(NC=C2C(=O)OC(C)(C)OC2=O)c1 | -1.52
17 | Cc1cc(C)c(C(=O)C(C)OC(=O)c2ccccn2)cc1C (stereo not drawn) | 16.1
18 | CN(CC(=O)Nc1cccc(F)c1)C(=O)c1cc(-c2cccs2)nn1-c1ccccc1 | -24.3
19 | CCOc1ccccc1C(=O)NC1CC2CCCC(C1)N2C1CC1 (stereo not drawn) | -19
20 | CCCCOC(=O)Nc1ccc(S(=O)(=O)Nc2cc(C)nc(C)n2)cc1 | 17.8
21 | COc1ccc(-n2c(-c3ccc(Cl)cc3)c[nH]c2=S)cc1 | 27.9
22 | CC(C)OC(=O)/C(=C\c1ccccc1)NC(=O)c1ccccc1 | 3.64
23 | CC(C)(C)c1cc(C=C(C#N)C#N)cc(C(C)(C)C)c1O | 19.1

Row | SMILES | hERG current change (%, negative = inhibition) at 10uM [%]
24 | COc1cc(CN2CC(=O)N(c3ccc(C)cc3)C2=S)cc(OC)c1OC | 7.46
25 | O=C(O)/C(=C\c1ccccc1)c1ccccc1 | -0.424
26 | CC(OC(=O)Cn1cnc2ccccc2c1=O)C(=O)N(C)c1ccccc1 (stereo not drawn) | -3.19
27 | NS(=O)(=O)c1ccc(CNC(=O)Cn2nc(C(F)F)cc2C(F)F)cc1 | 9.18
28 | C=CCn1c(SCC(=O)Nc2ccc3c(c2)CCC3)nc2ccccc2c1=O | -21.6
29 | CCOC(=O)c1ccc(NC(=O)CC2SCCNC2=O)cc1 (stereo not drawn) | 11.7
30 | COc1ccc(C(=O)NCC2(c3ccccc3)CCCC2)c(OC)c1 | -21.5
31 | CC1=CC=CC2=NC(=O)CC(C)(C(=O)N(CC(=O)NC3CCCC3)c3ccc(F)cc3)N12 (stereo not drawn) | 11.1
32 | Cc1nnc(C)c2c(C)n(-c3ccc(Cl)c(N)c3)c(C)c12 | -45
33 | COC(=O)c1c(NC(=O)c2ccc(S(=O)(=O)N3CCOCC3)cc2)sc2c1CCN(C)C2.Cl | -35
34 | COc1ccc(C(=O)NCC2(c3ccccc3)CCOCC2)cc1[N+](=O)[O-] | -18.4
35 | O=C(Nc1ccccc1C(=O)NCC1CCCO1)c1ccc(Cl)cc1Cl (stereo not drawn) | -24.8
36 | CCOc1ccc2nc(SCC(=O)NC3CCCc4ccccc43)sc2c1 (stereo not drawn) | 14.2
37 | C=CCc1ccc(OCCCCN2CC(C)CC(C)C2)c(OC)c1.O=C(O)C(=O)O (stereo not drawn) | -67
38 | CCCCN1C(N)=NC[C@@H]1Cc1ccccc1 | 0.376
39 | COc1ccc(C(=O)N2CCCC2)cc1 | -2.88
40 | O=C1c2cccc3c(O)ccc(c23)C(=O)N1c1ccc(Cl)cc1 | -7.31
41 | O=C(N[C@@H](Cc1c[nH]c2ccccc12)C(=O)NC1CC1)c1ccccc1Cl | 7.79
42 | CSc1cccc(-c2nnc(NC(=O)c3cccc(N4C(=O)CCC4=O)c3)o2)c1 | 5.94
43 | CCOC(=O)c1c(NC(NC(=O)CF)C(Cl)(Cl)Cl)sc2c1CCCC2 (stereo not drawn) | -6.42
44 | COc1cc(CNc2ccc(N3CCOCC3)c(C(=O)O)c2)ccc1OCC(N)=O | -6.95
45 | CC[C@@]1(O)C(=O)OCc2c1cc1n(c2=O)Cc2cc3c(N)cccc3nc2-1 | 8.96
